The values that follow come from patent US20060141460A1, “Assays for fprl-1 ligands” (AstraZeneca A B, priority 2002, published 2006).

In one experiment the target is T1, FPRL-1 (Homo sapiens, UniProt P25090).
T1 sequence (P25090 1-351): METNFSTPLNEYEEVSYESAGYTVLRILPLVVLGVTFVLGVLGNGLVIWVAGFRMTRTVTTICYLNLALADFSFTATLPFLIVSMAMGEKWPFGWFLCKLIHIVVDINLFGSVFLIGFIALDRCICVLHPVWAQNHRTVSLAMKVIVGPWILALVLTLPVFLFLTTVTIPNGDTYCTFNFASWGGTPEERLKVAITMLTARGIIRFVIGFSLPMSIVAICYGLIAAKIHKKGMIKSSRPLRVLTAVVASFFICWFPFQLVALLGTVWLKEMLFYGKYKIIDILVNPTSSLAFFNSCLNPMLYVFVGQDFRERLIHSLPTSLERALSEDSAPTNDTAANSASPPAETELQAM
Description: FLIPR intracellular calcium mobilization in HEK-293s or CHO cells expressing FPRL-1. The conditions noted are these: for Emax: HEK-293s transiently expressing hFPRL-1 in Gα16 background. Format: cell-based. As for the experimental part: A stable receptor pool of FPRL-1 was developed by applying an antibiotic selection (G418, 1 mg/ml) and the cells were maintained in this selection medium.
A functional assay was performed with FLIPR (Fluorescent Imaging Plate Reader, Molecular Devices, Sunnyvale, Calif.) using the fluorescent calcium indicator Fluo-3 (Molecular Probes, Inc., Eugene, Oreg.) on a 96-well platform. […] On the day of the experiment, the FPRL-1-transfected cells were loaded with fluorescent solution (Dulbecco's modified medium containing 4 μM Fluo-3 and 20% pluronic acid). The cells were incubated at 37° C. for one hour in a humidified chamber. Following the incubation step, cells were washed five times in Hanks' with 20 mM Hepes and 0.1% BSA (pH 7.4). The cells were analyzed using the FLIPR system to measure the mobilization of intracellular calcium in response to different compounds.
Cell lines transiently expressing human FPRL-1 were stimulated with compounds, and calcium responses were compared to parental cells.
Background: Calcium flux is commonly read through the fluorescence of an indicator in the cells.

The target in another experiment is T2, CCR1 receptor (UniProt P32246).
T2 sequence (looked up): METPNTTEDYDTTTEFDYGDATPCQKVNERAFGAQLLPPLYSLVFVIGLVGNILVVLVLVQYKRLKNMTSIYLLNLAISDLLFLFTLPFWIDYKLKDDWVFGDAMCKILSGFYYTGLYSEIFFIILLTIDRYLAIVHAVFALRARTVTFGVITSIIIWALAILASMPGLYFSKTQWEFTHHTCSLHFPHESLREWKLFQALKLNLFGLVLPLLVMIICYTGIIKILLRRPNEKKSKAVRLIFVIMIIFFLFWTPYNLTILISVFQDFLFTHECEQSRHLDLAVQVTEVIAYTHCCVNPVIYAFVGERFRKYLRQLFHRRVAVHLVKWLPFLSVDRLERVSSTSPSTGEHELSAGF
In words: cell-based or functional assay.

Experiment [1] has as its target human formyl peptide receptor-like-1 (FPRL-1) receptor (human) (UniProt P25090). Description: cell-based or functional assay.
The target of a further experiment is T3, CCR1 (Homo sapiens, UniProt P32246).
T3 construct: expressed in transfected cells
T3 sequence (P32246 1-355): T2 sequence (looked up)
In words: [Ca2+]i release in HEK-293s cells stably expressing CCR1. Format: cell-based. The conditions noted are these: CCR1 stably expressed in HEK-293s cells; mean±s.e. mean.

Experiment [2] has as its target human formyl peptide receptor-like-1 (FPRL-1) receptor (human) (UniProt P25090). In words: cell-based or functional assay. The source holds these as a separate data set.
[3] abbreviates: HEK-293s cells co-expressing Gα16 and FPRL-1, mean±s.e. mean.

Like-named read-outs stand apart in the source and are kept apart here. Where no end group is shown, it is not given here. Some results are limits rather than exact numbers.

In the case of `CCCCC[C@H](O)/C=C/C=C\C=C\C=C\[C@@H](O)[C@@H](O)CCCC(=O)O` [Lipoxin A4 (LXA4), Lipoxin A4], the “Intracellular Ca2+ mobilization pEC50 (n = 3)” value at FPRL-1 (setting [3]) is listed as under 6.0. In addition, the negative logarithm of the EC50 (pEC50) (commonly the EC50 on a negative log10 scale, so that one unit is a factor of ten) at FPRL-1 at FPRL-1 (calcium mobilization, CHO and HEK-293s cells co-expressing Gα16 and FPRL-1) is on record as under 6.

Turning to `CSCC[C@H](NC(=O)[C@@H](NC(=O)[C@H](CCSC)NC(=O)[C@H](Cc1ccc(O)cc1)NC(=O)[C@H](CCCCN)NC(=O)[C@@H](N)Cc1c[nH]c2ccccc12)C(C)C)C(N)=O` [W-peptide], the Emax on FPRL-1 (n = 1) is recorded as 13252 RFU; on FPRL-1 (n = 2), 13326 RFU.

Molecule “CKβ8 (aa22-120) (from UniProt P55773 22-120) (ligand)” came in with a pEC50 (n = 4), [Ca2+]i release in HEK-293s cells stably expressing CCR1 (-log of the EC50) with CCR1 receptor of 8.42.

“CKβ8 (aa46-120) (from UniProt P55773 46-120) (ligand)” came in with a pEC50 (n = 4), [Ca2+]i release in HEK-293s cells stably expressing CCR1 (-log of the EC50) with CCR1 receptor of 8.88.

In turn, “CKβ8-1 (aa22-137) (from UniProt P55773 22-137) (ligand)” returned an Intracellular Ca2+ mobilization pEC50 (n = 3), HEK-293s cells (-log of the EC50) in experiment [1] of under 5.7. Moreover, in the experiment with CCR1 receptor, the pEC50 (n = 4), [Ca2+]i release in HEK-293s cells stably expressing CCR1 (-log of the EC50) was 7.42.

With LWRRKIGPQMTLSHAAG [SHAAG peptide], at FPRL-1 (Intracellular Ca2+ mobilization pEC50 (n = 3), HEK-293s cells co-expressing Gα16 and FPRL-1, mean±s.e. mean), the EC50 – broadly, the concentration needed to bring the measured effect to its halfway point – amounted to 70.8 nM.

“RANTES (from UniProt P13501 24-91) (ligand)”: the pEC50 (n = 4), [Ca2+]i release in HEK-293s cells stably expressing CCR1 (-log of the EC50) in the experiment with CCR1 receptor amounted to 9.57.

With RANTES: a CCR1 agonist, the “pEC50 (n = 4)” value in the experiment with CCR1 was 9.57±0.06.

Consider SHAAG peptide, for which the Intracellular Ca2+ mobilization pEC50 (n = 3), HEK-293s cells (-log of the EC50) in experiment [1] is 7.15.

In the case of “recombinant human CKβ8-1 (aa46-137) (from UniProt P55773 46-137) (ligand)”, in experiment [1], the EC50, intracellular calcium mobilization (FLIPR), HEK-293s cells stably expressing hFPRL-1 in Gα16 background, n = 1 was 6.55 nM; the EC50, intracellular calcium mobilization (FLIPR), HEK-293s cells stably expressing hFPRL-1 in Gα16 background, n = 2 was determined as 0.52 nM; the Emax, intracellular calcium mobilization (FLIPR), HEK-293s cells stably expressing hFPRL-1 in Gα16 background, n = 1 was 12100 RFU; the Emax, intracellular calcium mobilization (FLIPR), HEK-293s cells stably expressing hFPRL-1 in Gα16 background, n = 2 is 21300 RFU. Besides, in experiment [1], the Emax, intracellular calcium mobilization (FLIPR), HEK-293s transiently expressing hFPRL-1 in Gα16 background, n = 1 came out at 8480 RFU; the Emax, intracellular calcium mobilization (FLIPR), HEK-293s transiently expressing hFPRL-1 in Gα16 background, n = 2 amounted to 6330 RFU; the Intracellular Ca2+ mobilization pEC50 (n = 3), HEK-293s cells (-log of the EC50) was 8.85. This molecule also showed a pEC50 (n = 4), [Ca2+]i release in HEK-293s cells stably expressing CCR1 (-log of the EC50) with CCR1 receptor of 8.14.

B1: Serum Amyloid A protein (SAA) (ligand, UniProt P0DJI8 19-122, looked up, species assumed)
Serum amyloid A-1 protein: RSFFSFLGEAFDGARDMWRAYSDMREANYIGSDKYFHARGNYDAAKRGPGGAWAAEVITDARENIQRFFGHGAEDSLADQAANEWGRSGKDPNHFRPAGLPEKY
With B1, the Intracellular Ca2+ mobilization pEC50 (n = 3), HEK-293s cells (-log of the EC50) in experiment [2] is under 6. Moreover, the “Intracellular Ca2+ mobilization pEC50 (n = 3)” value with FPRL-1 (setting [3]) is recorded as under 6.0.
